Results as given in the supplement of paper PMC4604168 (melanoma cell lines).
The list shows a part of the results. Single values are uncertain, as repeats are few or missing.

Tested on: RPMI7951
Test: cell count relative to DMSO control; melanoma cells; higher = more viable cells
Settings: library dose: standard library concentration; 72 h
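Further: cells treated in 1,536-well plates, then fixed and DAPI-stained, with nuclei counted from automated high-throughput microscope images.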

SMILES | cell count [%]
O=C(O)c1ccc(-c2c[nH]c3ncc(-c4ccccc4)cc23)cc1C1CCCC1 + COc1cc2ncnc(Nc3ccc(Oc4ccccc4)cc3)c2cc1OC [SrcI1] (first compound 0.8 µM, partner dose 10 µM) | 50.1
O=c1[nH]nc(Sc2ncc([N+](=O)[O-])s2)n1-c1ccc2c(c1)OCCO2 + CC(C)C[C@H](NC(=O)[C@H](Cc1ccccc1)NC(=O)c1cnccn1)B(O)O [Bortezomib] (first compound 1 µM, partner dose 0.005 µM) | 3.22
O=c1[nH]nc(Sc2ncc([N+](=O)[O-])s2)n1-c1ccc2c(c1)OCCO2 + CCc1ccc(CCOc2ccc(CC3SC(=O)NC3=O)cc2)nc1 [pioglitazone] (first compound 1 µM, partner dose 10 µM) | 92.8
C[C@@H]1CCN(C(=O)CC#N)C[C@@H]1N(C)c1ncnc2[nH]ccc12 + COc1ccc(-c2ccc3c(N4CCOCC4)nc(N4C[C@@H](C)O[C@@H](C)C4)nc3n2)cc1CO [KU0063794] (first compound 5 µM, partner dose 0.1 µM) | 74.7
C[C@@H]1CCN(C(=O)CC#N)C[C@@H]1N(C)c1ncnc2[nH]ccc12 + O=S(=O)(c1ccccc1)N(CC(F)(F)F)c1ccc(C(O)(C(F)(F)F)C(F)(F)F)cc1 [T0901317] (first compound 5 µM, partner dose 7 µM) | 85.8

Tested on: RVH-421
Test: as above
Settings: library dose: standard library concentration; 72 h

SMILES | cell count [%]
O=c1[nH]nc(Sc2ncc([N+](=O)[O-])s2)n1-c1ccc2c(c1)OCCO2 + Cn1nnc2c(C(N)=O)ncn2c1=O [temozolomide] (first compound 1 µM, partner dose 10 µM) | 112
Cn1cncc1[C@@](N)(c1ccc(Cl)cc1)c1ccc2c(c1)c(-c1cccc(Cl)c1)cc(=O)n2C [tipifarnib] + O=C(O)C(=O)Nc1sc2c(c1C(=O)O)CCNC2 [TCS401] (first compound 0.05 µM, partner dose 8.33333 µM) | 75.2
O=C(Nc1cccc(Cl)c1)Nc1ncc(CCNc2ncnc3ccsc23)s1 + CCc1ccc(CCOc2ccc(CC3SC(=O)NC3=O)cc2)nc1 [pioglitazone] (first compound 0.004 µM, partner dose 10 µM) | 68.6
O=c1[nH]nc(Sc2ncc([N+](=O)[O-])s2)n1-c1ccc2c(c1)OCCO2 + O=C(O)c1ccc(-c2c[nH]c3ncc(-c4ccccc4)cc23)cc1C1CCCC1 [GSK650394] (first compound 1 µM, partner dose 0.8 µM) | 95.5
O=c1[nH]nc(Sc2ncc([N+](=O)[O-])s2)n1-c1ccc2c(c1)OCCO2 + O=C(Nc1cccc(Cl)c1)Nc1ncc(CCNc2ncnc3ccsc23)s1 [SNS314] (first compound 1 µM, partner dose 0.004 µM) | 74.4
COc1cc(Nc2ncc(F)c(Nc3ccc4c(n3)NC(=O)C(C)(C)O4)n2)cc(OC)c1OC [Tamatinib] + CCCCCCCCCCCC1=C(O)C(=O)C=C(O)C1=O [Embelin] (first compound 2 µM, partner dose 6 µM) | 72
CC1(C)NC(=O)N(c2ccc([N+](=O)[O-])c(C(F)(F)F)c2)C1=O [nilutamide] + O=C1NC(=O)/C(=C/c2ccc(-c3ccc(F)cc3O)o2)S1 [AS252424] (first compound 5 µM, partner dose 5 µM) | 94.8
Cn1cncc1[C@@](N)(c1ccc(Cl)cc1)c1ccc2c(c1)c(-c1cccc(Cl)c1)cc(=O)n2C [tipifarnib] + O=C(Nc1ccccc1)c1cc([N+](=O)[O-])ccc1Cl [GW9662] (first compound 0.05 µM, partner dose 10 µM) | 70.1
O=c1[nH]nc(Sc2ncc([N+](=O)[O-])s2)n1-c1ccc2c(c1)OCCO2 + C[C@@H](N)c1ccc(C(=O)Nc2ccnc3[nH]ccc23)cc1 [RKI983] (first compound 1 µM, partner dose 2 µM) | 54.1
O=C(O)c1ccc(-c2c[nH]c3ncc(-c4ccccc4)cc23)cc1C1CCCC1 + COc1cc(N2CCC(N3CCN(C)CC3)CC2)ccc1Nc1ncc(Cl)c(Nc2ccccc2S(=O)(=O)C(C)C)n1 [NVP-TAE684] (first compound 0.8 µM, partner dose 0.4 µM) | 73.9
O=c1[nH]nc(Sc2ncc([N+](=O)[O-])s2)n1-c1ccc2c(c1)OCCO2 + COc1cc(Nc2ncc(F)c(Nc3ccc4c(n3)NC(=O)C(C)(C)O4)n2)cc(OC)c1OC [Tamatinib] (first compound 1 µM, partner dose 2 µM) | 79.8
O=c1[nH]nc(Sc2ncc([N+](=O)[O-])s2)n1-c1ccc2c(c1)OCCO2 + COc1cc(N2CCC(N3CCN(C)CC3)CC2)ccc1Nc1ncc(Cl)c(Nc2ccccc2S(=O)(=O)C(C)C)n1 [NVP-TAE684] (first compound 1 µM, partner dose 0.4 µM) | 89.2
COc1cc(Nc2ncc(F)c(Nc3ccc4c(n3)NC(=O)C(C)(C)O4)n2)cc(OC)c1OC [Tamatinib] + CC1(C)NC(=O)N(c2ccc([N+](=O)[O-])c(C(F)(F)F)c2)C1=O [nilutamide] (first compound 2 µM, partner dose 5 µM) | 82.4
O=C(O)c1ccc(-c2c[nH]c3ncc(-c4ccccc4)cc23)cc1C1CCCC1 + COc1ccc2c(c1)CCC1C2CCC2(C)C(NCCCCCCN3C(=O)C=CC3=O)CCC12 [U73122] (first compound 0.8 µM, partner dose 2 µM) | 90
O=c1[nH]nc(Sc2ncc([N+](=O)[O-])s2)n1-c1ccc2c(c1)OCCO2 + CO[C@@H]1[C@H](N(C)C(=O)c2ccccc2)C[C@H]2O[C@]1(C)n1c3ccccc3c3c4c(c5c6ccccc6n2c5c31)C(=O)NC4 [Midostaurin] (first compound 1 µM, partner dose 0.4 µM) | 60.5
Cn1cncc1[C@@](N)(c1ccc(Cl)cc1)c1ccc2c(c1)c(-c1cccc(Cl)c1)cc(=O)n2C [tipifarnib] + NCC(=O)Nc1ccc(-n2nc(C(F)(F)F)cc2-c2ccc3c(ccc4ccccc43)c2)cc1 [OSU03012] (first compound 0.05 µM, partner dose 5 µM) | 88.5
C[C@@H]1CCN(C(=O)CC#N)C[C@@H]1N(C)c1ncnc2[nH]ccc12 + Cc1cc([N+](=O)[O-])ccc1NS(=O)(=O)c1cc(Cl)ccc1Cl [FH535] (first compound 5 µM, partner dose 5 µM) | 67.6
CC1(C)NC(=O)N(c2ccc([N+](=O)[O-])c(C(F)(F)F)c2)C1=O [nilutamide] + N#Cc1c(O)c2c(-c3ccc(-c4ccccc4O)cc3)csc2[nH]c1=O [A769662] (first compound 5 µM, partner dose 10 µM) | 102
O=c1[nH]nc(Sc2ncc([N+](=O)[O-])s2)n1-c1ccc2c(c1)OCCO2 + Cc1ccc(Nc2nccc(N(C)c3ccc4c(C)n(C)nc4c3)n2)cc1S(N)(=O)=O [Pazopanib] (first compound 1 µM, partner dose 2 µM) | 103
O=C(Nc1cccc(Cl)c1)Nc1ncc(CCNc2ncnc3ccsc23)s1 + Oc1cc(-c2nc(-c3ccccc3)[nH]c2-c2ccncc2)ccc1Cl [L779450] (first compound 0.004 µM, partner dose 1 µM) | 68.8
COc1cc(Nc2ncc(F)c(Nc3ccc4c(n3)NC(=O)C(C)(C)O4)n2)cc(OC)c1OC [Tamatinib] + CCN(CC)CCCCNc1ncc2cc(-c3cc(OC)cc(OC)c3)c(NC(=O)NC(C)(C)C)nc2n1 [PD173074] (first compound 2 µM, partner dose 0.5 µM) | 77.1
O=c1[nH]nc(Sc2ncc([N+](=O)[O-])s2)n1-c1ccc2c(c1)OCCO2 + Nc1ncn([C@H]2C[C@H](O)[C@@H](CO)O2)c(=O)n1 [decitabine] (first compound 1 µM, partner dose 0.5 µM) | 76.9
O=c1[nH]nc(Sc2ncc([N+](=O)[O-])s2)n1-c1ccc2c(c1)OCCO2 + C[C@]1(O)C[C@@H](c2nc(-c3ccc4ccc(-c5ccccc5)nc4c3)c3c(N)nccn32)C1 [OSI906] (first compound 1 µM, partner dose 2 µM) | 137
O=c1[nH]nc(Sc2ncc([N+](=O)[O-])s2)n1-c1ccc2c(c1)OCCO2 + CCCCCCCCc1ccc(CCC(N)(CO)CO)cc1 [fingolimod] (first compound 1 µM, partner dose 10 µM) | 7.93
O=c1[nH]nc(Sc2ncc([N+](=O)[O-])s2)n1-c1ccc2c(c1)OCCO2 + COc1ccc(-c2ccc3c(N4CCOCC4)nc(N4C[C@@H](C)O[C@@H](C)C4)nc3n2)cc1CO [KU0063794] (first compound 1 µM, partner dose 0.1 µM) | 40.6
COc1cc(Nc2ncc(F)c(Nc3ccc4c(n3)NC(=O)C(C)(C)O4)n2)cc(OC)c1OC [Tamatinib] + c1cc(-c2cnn3cc(-c4ccc(OCCN5CCCCC5)cc4)cnc23)ccn1 [Dorsomorphin] (first compound 2 µM, partner dose 2 µM) | 67.6
O=C(Nc1cccc(Cl)c1)Nc1ncc(CCNc2ncnc3ccsc23)s1 + O=C1NC(=O)/C(=C/c2ccc(-c3ccc(F)cc3O)o2)S1 [AS252424] (first compound 0.004 µM, partner dose 5 µM) | 84.2
